Here are results for 87 compounds from PMC4336329 (PLoS ONE, 2015).

About 2,200 (0.71%) of roughly 310,000 compounds showed an effect of 50% or more. Effects have a minus sign here. The list shows a part of the results.

This assay deals with human ether-à-go-go-related gene (hERG) potassium channel (human, UniProt Q12809). The assay can be described thus: primary screen, population patch clamp on CHO cells stably expressing hERG.
Chain of human ether-à-go-go-related gene (hERG) potassium channel (Q12809 whole entry, looked up): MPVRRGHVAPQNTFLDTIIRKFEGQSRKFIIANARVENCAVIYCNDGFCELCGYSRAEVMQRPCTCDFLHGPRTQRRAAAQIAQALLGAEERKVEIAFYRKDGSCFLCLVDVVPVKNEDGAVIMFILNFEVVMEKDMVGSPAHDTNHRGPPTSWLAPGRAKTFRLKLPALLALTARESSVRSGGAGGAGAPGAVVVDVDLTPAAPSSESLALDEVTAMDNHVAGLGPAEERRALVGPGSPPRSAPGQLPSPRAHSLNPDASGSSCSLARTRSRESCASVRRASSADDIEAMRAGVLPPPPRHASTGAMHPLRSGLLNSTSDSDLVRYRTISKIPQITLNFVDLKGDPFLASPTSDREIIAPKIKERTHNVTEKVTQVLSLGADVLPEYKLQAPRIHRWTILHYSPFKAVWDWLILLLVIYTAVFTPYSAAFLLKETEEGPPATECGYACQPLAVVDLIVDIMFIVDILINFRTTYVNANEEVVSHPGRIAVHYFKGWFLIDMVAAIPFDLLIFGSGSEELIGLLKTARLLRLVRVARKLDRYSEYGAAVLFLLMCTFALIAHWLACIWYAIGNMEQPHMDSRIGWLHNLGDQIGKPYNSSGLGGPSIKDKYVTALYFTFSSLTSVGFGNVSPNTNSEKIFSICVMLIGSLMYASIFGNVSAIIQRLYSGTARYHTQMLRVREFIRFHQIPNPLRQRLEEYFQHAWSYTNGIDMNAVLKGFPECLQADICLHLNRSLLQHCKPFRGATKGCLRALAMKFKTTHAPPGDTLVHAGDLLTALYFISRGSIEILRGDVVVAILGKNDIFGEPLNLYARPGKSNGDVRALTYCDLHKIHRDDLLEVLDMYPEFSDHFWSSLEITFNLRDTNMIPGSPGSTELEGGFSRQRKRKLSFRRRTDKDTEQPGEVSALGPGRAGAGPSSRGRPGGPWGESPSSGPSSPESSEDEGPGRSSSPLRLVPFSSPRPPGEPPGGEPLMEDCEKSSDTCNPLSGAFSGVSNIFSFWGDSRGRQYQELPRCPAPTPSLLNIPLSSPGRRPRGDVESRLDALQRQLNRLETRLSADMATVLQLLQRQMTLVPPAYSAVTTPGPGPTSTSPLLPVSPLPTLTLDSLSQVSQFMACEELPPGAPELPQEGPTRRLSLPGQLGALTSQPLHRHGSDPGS
Take `Cc1ccc(S(=O)(=O)N2CCN(C(=O)CSc3ccc(F)cc3)CC2)cc1`: the “hERG current change (%, negative = inhibition) at 1uM” value is on record as 15.1%.
Under `c1ccc(CCSc2ncnc3nc[nH]c23)cc1` stands 8.8%; under `CCN(C#N)c1nc(NC(C)C)nc(NC(C)C)n1`, 10.2%; under `CC#CCN1c2ccccc2[C@]23C[C@@H](C(=O)OC)N(C(=O)c4ccco4)C2=NC(C(=O)OC)=C(C(=O)OC)[C@H]13`, 10.4%.
Regarding `O=C(NCC1CCCO1)c1c(O)nc2sccn2c1=O` (stereo not drawn), the “hERG current change (%, negative = inhibition) at 1uM” value worked out at 9.42%.
Under `O=C(N[C@@H](Cc1c[nH]c2ccccc12)C(=O)O)C1CCN(S(=O)(=O)c2ccc(Cl)cc2)CC1` stands 15.8%.
Regarding `O=C(N/N=C/C=C/c1ccc2c(c1)OCO2)c1ccc([N+](=O)[O-])cc1`, the “hERG current change (%, negative = inhibition) at 1uM” value was -0.0157%.
Under `O=C(c1ccc2c(c1)OCO2)C1CCCN(Cc2ccc(F)c(F)c2)C1` (stereo not drawn) stands 5.03%; under `COc1ccc(NC(=S)N2CCN(S(=O)(=O)c3ccc(F)cc3)CC2)cc1`, 9.07%; under `O=S(=O)(Nc1cc(Cl)ccc1N1CCCCC1)c1cccs1`, 11.6%.
As for `Cc1ccc(NC(=O)c2ccco2)c(NC(=O)c2ccc(Cl)cc2)c1`, the “hERG current change (%, negative = inhibition) at 1uM” value came out at 9.21%.
In the case of `O=C(CCl)Nc1cccc(S(=O)(=O)N2CCCCCC2)c1`, the “hERG current change (%, negative = inhibition) at 1uM” value amounted to 4.52%.
Under `CCN(CC)S(=O)(=O)c1cc(C)c(C)cc1OCC(=O)NC1CCCC1` stands 9.67%.
Under `Brc1ccc(C2=CC(c3ccco3)n3nnnc3N2)cc1` (stereo not drawn) stands 10.1%.
Under `Cc1ccccc1Nc1nc(N)nc(COC(=O)c2ccc([N+](=O)[O-])o2)n1` stands 8.44%.
With `COc1ccc(NC(=O)CSc2nnc3c4c(nc(-c5ccccc5)n23)CC(C)(C)OC4)cc1`, the “hERG current change (%, negative = inhibition) at 1uM” value is -4.87%.
Take `O=S(=O)(N1CCOCC1)N1CCOCC1`: the “hERG current change (%, negative = inhibition) at 1uM” value was 22.6%.
As to `CN1CCN(C(=O)c2cc(-c3ccco3)on2)CC1`, the “hERG current change (%, negative = inhibition) at 1uM” value stood at 19.6%.
Under `O=C(CSc1nc2ccccc2c(=O)n1NC(=O)Cc1ccccc1)NCc1ccccc1` stands 16.1%; under `CC1(C)Cc2cccc(OCC(=O)N3CCN(c4ccc([N+](=O)[O-])cc4)CC3)c2O1`, -51.8%; under `CCC(=O)Nc1nc(CC(=O)Nc2ccccc2)cs1`, 13.1%.
For the compound `Cc1ccc(-c2nc3ncccc3o2)cc1NC(=O)c1cc2ccccc2o1`, the “hERG current change (%, negative = inhibition) at 1uM” value is listed as 3.23%.
Under `CCn1cc(C(=O)NCCCN2CCCC2)c(=O)c2cc(S(=O)(=O)N3CCc4ccccc4C3)ccc21` stands 6.45%.
Under `Cc1ccc(C(=O)OCC(=O)NCc2cccs2)c(C)c1` stands 16.4%; under `CCCCn1c(=O)n(C)c(=O)c2c3c(sc21)COC(C)(C)C3`, 2.92%.
Under `O=C(N/N=C\c1cn(-c2ccccc2)nc1-c1ccccc1)c1ccc(Br)o1` stands 7.05%; under `Cc1ccc(S(=O)(=O)CCC(=O)N(Cc2nnc(-c3ccc(Cl)cc3)o2)C2CC2)cc1`, 4.52%; under `COc1ccc(NC(=O)C(NC(=O)c2ccc(=O)[nH]c2)c2ccc(OC)cc2)cc1` (stereo not drawn), 5.55%.
In the case of `COc1cc(C(CC(=O)Nc2ccc(C)cn2)N2Cc3ccccc3C2=O)cc(OC)c1OC` (stereo not drawn), the “hERG current change (%, negative = inhibition) at 1uM” value was 9.69%.
For `O=C(Nc1ccc(Cl)cc1)N1CCOC12CCCCC2`, the “hERG current change (%, negative = inhibition) at 1uM” value turned out to be 2.35%.
Under `O=C(N/N=C\C=C\c1ccc2c(c1)OCO2)C1COc2ccccc2O1` (stereo not drawn) stands -7.86%.
In the case of `CC(=C/c1ccccc1)/C=N/Nc1nc(N2CCCCC2)nc(N2CCCCC2)n1`, the “hERG current change (%, negative = inhibition) at 1uM” value was 1.93%.
Under `O=C(c1ccc(Cl)cc1Cl)N1CCC(C(=O)N2CCOCC2)CC1` stands 8.73%; under `CC(C)(C)C1CCc2c(sc(NC(=O)CSc3nnc(-c4ccccc4)o3)c2C#N)C1` (stereo not drawn), 9.05%; under `C=CCn1c(CCNC(=O)c2ccccc2F)nnc1SCC(=O)Nc1nc(C)cs1`, 4.14%.
`COC(=O)C1CC(=O)N(CCc2c[nH]c3ccccc23)C1` (stereo not drawn): the “hERG current change (%, negative = inhibition) at 1uM” value came out at 2.43%.
Under `C=CCC(=O)NC1CC(C)(C)Cc2c1cnn2-c1ccccc1C` (stereo not drawn) stands 9.27%; under `Cc1ccccc1SCC(=O)Nc1cccc(C#N)c1`, 17.9%; under `Cc1ccc(S(=O)(=O)NCC(=O)NCC(=O)NC(C)c2ccccc2Br)cc1C` (stereo not drawn), 7.99%.
Under `CC(=O)NCCNC(=O)c1ccc(Cn2c(=O)[nH]c3ccsc3c2=O)cc1` stands 12.1%.
Consider `O=C(CN1CCOCC1)Nc1ccc(Oc2ccc(NC(=O)CN3CCOCC3)cc2)cc1`, for which the “hERG current change (%, negative = inhibition) at 1uM” value turned out to be 3.34%.
Under `O=C(O)c1ccc(C2CCCCC2)cn1` stands 10.4%; under `O=C(COc1cccc(C(F)(F)F)c1)Nc1ccc(S(=O)(=O)N2CCCC2)cc1`, 6.14%; under `CCN(CC)c1ccc(C2C(C(=O)Nc3ccccn3)=C(C)NC3=C2C(=O)CC(C)(C)C3)cc1` (stereo not drawn), 1.54%.
Under `Cn1cc(Cl)c(C(=O)Nc2nc3ccc([N+](=O)[O-])cc3s2)n1` stands 19.6%; under `CCOC(=O)c1c(NC(=O)c2cccs2)sc(C(=O)N2CCOCC2)c1C`, -11.3%; under `CC(=NCCCn1ccnc1)c1c(O)n(C)c(=O)n(C)c1=O`, -3.3%.
Take `COC1=CCC2([N+](=O)[O-])CN(CCO)CC1([N+](=O)[O-])C2` (stereo not drawn): the “hERG current change (%, negative = inhibition) at 1uM” value was 14.4%.
Under `CCCn1c(=O)c2c(nc3n2CCS3)n(C)c1=O` stands 16.7%.
With `CCn1c(=O)c(C(=O)Nc2ccccn2)c(O)c2ccccc21`, the “hERG current change (%, negative = inhibition) at 1uM” value stood at 15%.
Under `CN(CC(=O)Nc1ccc(Cl)cc1)C(=O)CCc1nc2sc3c(c2c(=O)[nH]1)CCCC3` stands -11.1%; under `O=C(CSC1CS(=O)(=O)c2cc([N+](=O)[O-])ccc21)NNC(=O)c1ccccc1` (stereo not drawn), 0.828%; under `Cc1cc(C)nc(N2CCCC(C(=O)NCc3cccc(C(F)(F)F)c3)C2)n1` (stereo not drawn), 15.6%.
Under `N#Cc1cc2sc3nnc(-c4ccncc4)n3c2cc1C#N` stands -15.9%; under `Cc1cccc(-c2nnc(SCC#N)n2Cc2ccccc2)c1`, -20.4%; under `COc1ccc(OCC(=O)N/N=C/c2ccncc2)cc1`, 13.2%.
Under `CC1(C)c2ssc(=S)c2-c2ccccc2N1C(=O)CSC1=NCCS1` stands 14.8%.
For `O=C(CN1CC(=O)Nc2ccccc21)Nc1ccc(F)c(F)c1`, the “hERG current change (%, negative = inhibition) at 1uM” value is recorded as 9.28%.
For the compound `CC(C)COc1cccc(C(=O)NNC(=O)C2COc3ccccc3O2)c1` (stereo not drawn), the “hERG current change (%, negative = inhibition) at 1uM” value is 10.9%.
Under `O=C(O)COc1ccc(/C=N/O)cc1Br` stands 6.92%; under `Cc1cccc(-n2c(Cn3nc(C)c([N+](=O)[O-])c3C)n[nH]c2=S)c1`, 9.63%; under `Cc1ccccc1OCc1nnc(SCC(=O)O)n1-c1ccccc1`, 13.7%.
For the compound `O=C(COc1ccccc1)Nc1nnc(-c2ccccc2Cl)o1`, the “hERG current change (%, negative = inhibition) at 1uM” value is 8.45%.
Consider `CN(C)S(=O)(=O)c1ccc(Cl)c(C(=O)Nc2ccccc2[N+](=O)[O-])c1`, for which the “hERG current change (%, negative = inhibition) at 1uM” value is recorded as 0.658%.
Under `CC1CCCC(C)N1/N=C/c1ccc(C(=O)O)cc1` (stereo not drawn) stands 7.54%; under `CCCn1c(SCC(=O)/C(C#N)=C(\C)N)n[nH]c1=O`, 13.8%; under `CC(C)(C)C(=O)Nc1cc(NC(=O)C(C)(C)C)cc(C(=O)NNC(=O)c2ccncc2)c1`, 13.9%.
Under `CCc1cc(=O)oc2c(C)c(OCC(=O)NCCCn3ccnc3)ccc12` stands 5.28%; under `OCC[C@@H]1C[C@H](O)[C@@H](O)[C@]2(Cc3ccccc3CCO2)O1`, 7.02%.
Turning to `Clc1nc(Cl)nc(NCCC2=CCCCC2)n1`, the “hERG current change (%, negative = inhibition) at 1uM” value is given as 7.97%.
Under `Cc1ccccc1C(=O)Nc1scc(-c2ccc(Br)cc2)c1C(=O)O` stands 7.02%; under `CC(/C=N/NC(=O)c1cccs1)=C\c1ccco1`, 9.06%; under `COc1cccc(Oc2ccc(C(F)(F)F)cc2NC(=O)CCc2nc3ccccc3c(=O)[nH]2)c1`, 9.83%.
Take `CCN(CC1CCCO1)C(=O)CCc1nnc(Cc2ccc3c(c2)OCO3)o1` (stereo not drawn): the “hERG current change (%, negative = inhibition) at 1uM” value is given as 31.9%.
Take `CCOC(=O)c1ccc(Nc2nc(=O)c3cccnc3s2)cc1`: the “hERG current change (%, negative = inhibition) at 1uM” value amounted to 1.17%.
Regarding `CC(C)OP(=O)(c1ccc(N(C)C)cc1)C(O)c1ccc(C(C)C)cc1` (stereo not drawn), the “hERG current change (%, negative = inhibition) at 1uM” value stood at 17.5%.
On to `CCOC(=O)c1ccccc1NC(=O)CSc1cccc[n+]1[O-]`, for which the “hERG current change (%, negative = inhibition) at 1uM” value stood at 5.46%.
Under `COc1ccc(NC(=S)Nc2ccc3snnc3c2)cc1` stands 19.5%.
Under `NC(=O)C1CCN(Cc2nc(-c3ccccc3)no2)CC1` stands -0.397%; under `C=CCn1cccc(C(=O)Nc2ccc(OC)cc2)c1=O`, 7.04%; under `O=C(c1ccccc1)c1cccn1CC(=O)N1CCN(c2ccc(F)cc2)CC1`, 1.84%.
Under `CN(C)CCN(C(=O)c1ccc2ccccc2c1)c1nc2ccc(Br)cc2s1.Cl` stands 8.35%; under `CCCN(CC(=O)Nc1cccc(S(N)(=O)=O)c1)CC(=O)Nc1ccc(F)c(F)c1F`, 6.38%.
With `CCOC(=O)c1sc2nc(C)nc(SC(C)C(=O)N(C)c3ccccc3)c2c1C` (stereo not drawn), the “hERG current change (%, negative = inhibition) at 1uM” value was 2.83%.
With `COc1ccc(NC(=O)Cc2c(F)cccc2Cl)c(OC)c1`, the “hERG current change (%, negative = inhibition) at 1uM” value is 15.4%.
For `COc1ccc(C(=O)/C=C/Nc2c(C)n(C)n(-c3ccccc3)c2=O)c(OC)c1`, the “hERG current change (%, negative = inhibition) at 1uM” value was 5.94%.
Under `COCCn1c(=O)[nH]c(=O)c2c1nc(-c1ccc(-c3ccc(Cl)cc3[N+](=O)[O-])o1)n2Cc1ccccc1` stands -9.48%.
